Laboratory results as given in the antibiotic and cytotoxicity screens of Wong et al. (2023).
Some of the results follow.

Tests used:
HSkMC = human skeletal muscle cells; experiment: cytotoxicity call (relative viability < 0.9); details: 10 µM
HepG2 = experiment: cytotoxicity call (relative viability < 0.9); details: 10 µM
S. aureus RN4220 = experiment: growth inhibition call (relative growth <= 0.2); details: 50 µM

Structure (SMILES) | cytotoxicity call (HSkMC) | cytotoxicity call (HepG2) | growth inhibition call (S. aureus RN4220)
COc1ccc(S(=O)(=O)N[C@@H]2C=C[C@H](CC(=O)N3CCC(Cc4ccccc4)CC3)O[C@H]2CO)cc1 | inactive | inactive | inactive
C[C@H]1CN([C@@H](C)CO)C(=O)c2cccc(NC(=O)Nc3ccc(C(F)(F)F)cc3)c2O[C@H]1CN(C)Cc1ccccc1 | inactive | inactive | inactive
C[C@@H]1CN([C@H](C)CO)C(=O)c2cc(NS(=O)(=O)c3ccc(Cl)cc3)ccc2O[C@@H](C)CCCCO[C@@H]1CN(C)S(=O)(=O)c1ccccc1 | inactive | inactive | inactive
C[C@@H]1CN([C@@H](C)CO)C(=O)c2cccc(NC(=O)Nc3ccccc3)c2O[C@@H]1CN(C)Cc1ccc(Oc2ccccc2)cc1 | inactive | active | inactive
CCNC(=O)C[C@H]1CC[C@H]2[C@@H](COC[C@H](O)CN2C(=O)Nc2c(C)noc2C)O1 | inactive | inactive | inactive
O=C(CN1CCOCC1)N[C@@H]1CC[C@H](CCNS(=O)(=O)c2ccccc2F)O[C@@H]1CO | inactive | inactive | inactive
C[C@@H]1CN([C@H](C)CO)C(=O)c2cc(C#Cc3ccc(F)cc3)cnc2O[C@H]1CN(C)Cc1ccccn1 | inactive | inactive | inactive
CCOC(=O)c1c(C)oc(N)c1C(N)=O | inactive | inactive | inactive
C[C@@H]1CCCCO[C@@H](CN(C)C(=O)C2CCCCC2)[C@H](C)CN([C@H](C)CO)C(=O)c2cc(NC(=O)Nc3ccc(F)cc3)ccc2O1 | inactive | inactive | inactive
C[C@@H]1CN([C@H](C)CO)C(=O)c2c(c3ccccc3n2C)-c2ccccc2CO[C@@H]1CN(C)Cc1ccc2c(c1)OCCN2C | inactive | active | inactive
C[C@@H]1CCCCO[C@H](CN(C)Cc2ccc3c(c2)OCO3)[C@H](C)CN([C@H](C)CO)C(=O)c2cc(NC(=O)Nc3ccc(F)cc3)ccc2O1 | inactive | inactive | inactive
C[C@H]1CN([C@@H](C)CO)C(=O)Cc2cc(NC(=O)C3CCCCC3)ccc2O[C@H]1CN(C)S(C)(=O)=O | inactive | inactive | inactive
COCC#Cc1cnc2c(c1)C(=O)N([C@@H](C)CO)C[C@@H](C)[C@@H](CN(C)C(=O)c1cnccn1)O2 | inactive | inactive | inactive
C[C@H]1CN([C@@H](C)CO)C(=O)Cc2cc(NS(=O)(=O)c3ccccc3)ccc2O[C@H]1CN(C)Cc1ccncc1 | inactive | inactive | inactive
C[C@@H]1CN([C@H](C)CO)C(=O)c2cc(NS(=O)(=O)c3ccccc3)ccc2O[C@H]1CN(C)CC1CC1 | inactive | inactive | inactive
C[C@@H]1CCCCO[C@H](CN(C)CC2CCCCC2)[C@@H](C)CN([C@H](C)CO)C(=O)c2cc(NC(=O)CCCCCC(=O)Nc3ccccc3N)ccc2O1 | inactive | inactive | inactive
Cc1ccc(-c2cnc3c(c2)C(=O)N([C@@H](C)CO)C[C@H](C)[C@H](CN(C)C(=O)Cc2ccncc2)O3)cc1 | inactive | inactive | inactive

Structure (SMILES) | cytotoxicity call (HSkMC) | cytotoxicity call (HepG2) | growth inhibition call (S. aureus RN4220)
COc1ccc(NC(=O)N(C)C[C@H]2Oc3c(NC(=O)C4CCOCC4)cccc3C(=O)N([C@H](C)CO)C[C@@H]2C)cc1 | inactive | inactive | inactive
COc1ccc(S(=O)(=O)Nc2ccc3c(c2)C(=O)N([C@H](C)CO)C[C@@H](C)[C@H](CN(C)S(=O)(=O)c2ccc(C)cc2)O3)cc1 | inactive | inactive | inactive
CO[C@@H]1CN(C)C(=O)c2cc(NS(=O)(=O)c3ccccc3F)ccc2OC[C@@H](C)N(S(C)(=O)=O)C[C@H]1C | inactive | inactive | inactive
CN1CCc2nc(N)sc2C1 | inactive | inactive | inactive
O=C(C[C@@H]1C=C[C@@H](NC(=O)Cc2ccccn2)[C@@H](CO)O1)NCCc1ccncc1 | inactive | inactive | inactive
CO[C@H]1CN(C)C(=O)c2cc(NC(=O)C3CC3)ccc2OC[C@@H](C)N(C(=O)Cc2ccccn2)C[C@H]1C | inactive | inactive | inactive
CC1(C)OC2CC3C4CCC5=CC(=O)C=CC5(C)C4(F)C(O)CC3(C)C2(C(=O)CO)O1 (centres undefined) | inactive | inactive | inactive
O=C(C[C@H]1CC[C@H]2[C@@H](COC[C@H](O)CN2C(=O)c2cccnc2)O1)NCC1CC1 | inactive | inactive | inactive
C[C@@H]1CN([C@H](C)CO)C(=O)c2cc(NS(=O)(=O)c3cn(C)cn3)ccc2O[C@@H]1CN(C)S(=O)(=O)c1ccc(Cl)cc1 | inactive | inactive | inactive
CC(C)(C)OC(=O)N[C@H]1CCCCC/C=C\[C@@H]2C[C@@]2(C(=O)NS(=O)(=O)C2CC2)NC(=O)[C@@H]2C[C@@H](OC(=O)N3Cc4cccc(F)c4C3)CN2C1=O | inactive | inactive | inactive
CO[C@@H]1CN(C)C(=O)c2cc(NC(=O)CN(C)C)ccc2OC[C@@H](C)N(Cc2ccccc2F)C[C@H]1C | inactive | inactive | inactive
O=C(N/N=C/c1ccc(B(O)O)cc1)c1ccccn1 | inactive | inactive | inactive
COCC#Cc1ccc2c(c1)O[C@@H](CN(C)S(=O)(=O)c1cccc(F)c1)[C@H](C)CN([C@H](C)CO)S2(=O)=O | inactive | inactive | inactive
CO[C@H]1CN(C)C(=O)c2ccc(NS(=O)(=O)c3cn(C)cn3)cc2OC[C@@H](C)N(CCC(F)(F)F)C[C@@H]1C | inactive | inactive | inactive
C[C@@H]1CN([C@@H](C)CO)C(=O)c2cc(-c3cccc(C#N)c3)cnc2O[C@H]1CN(C)C(=O)C1CCOCC1 | inactive | inactive | inactive
C[C@@H]1CN([C@@H](C)CO)C(=O)c2cc(NC(=O)C3CC3)ccc2O[C@H]1CN(C)S(=O)(=O)c1cn(C)cn1 | inactive | inactive | inactive
